Laboratory results published in the supplement of paper PMC3334620.
The full ranking holds about 33,000 sequences; the median of “E-score (-0.5 to 0.5)” is about -0.017, and the highest 2% start at about 0.3. The list shows a part of the results.

biological target: T1, Sut1 (UniProt P53032); assay: PBM E-score (8-mer binding enrichment) (E-score (-0.5 to 0.5)); higher = stronger / more preferred TF binding; most listed sequences are background and not binding sites; settings: protein concentration: 200 nM; construct: GST-full length
T1 sequence: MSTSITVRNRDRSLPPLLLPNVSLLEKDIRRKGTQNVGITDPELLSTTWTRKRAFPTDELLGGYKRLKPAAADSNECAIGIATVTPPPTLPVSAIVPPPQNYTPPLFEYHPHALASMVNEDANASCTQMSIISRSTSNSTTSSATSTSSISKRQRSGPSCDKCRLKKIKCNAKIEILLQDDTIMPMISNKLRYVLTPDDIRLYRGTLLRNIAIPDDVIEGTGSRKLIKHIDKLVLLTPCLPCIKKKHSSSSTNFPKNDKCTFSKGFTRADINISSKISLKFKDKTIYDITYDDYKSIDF
Method in brief: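 Masliner-normalised scans of fluorescent anti-GST signal were the basis for scoring. That signal came from GST-tagged yeast transcription factors applied at about 100-200 nM to double-stranded universal all-10-mer Agilent arrays on fresh or once-stripped slides. Each ungapped eight-base word, pooled with its reverse complement, received an E-score from the Universal PBM Analysis Suite.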

Row | Sequence | PBM E-score
1 | GGAGCCTA | 0.126
2 | AGTATGGG | -0.226
3 | AAATAGGC | 0.0258
4 | ATGTCAAG | -0.0732
5 | CTAATAGC | -0.00937
6 | CCCAAATA | -0.156
7 | TAAATGGA | 0.156
8 | GAAGACCC | -0.114
9 | ACCGTTGC | -0.107
10 | CGAGCTAC | 0.00894
11 | AGGTTGCG | -0.105
12 | TACGGTCA | -0.0479
13 | ATGCGATC | -0.191
14 | AAACATAC | 0.0421
15 | AGTCCTAC | -0.0179
16 | GATCATAA | 0.0305
17 | GGAGGTCA | -0.217
18 | AGGACCAT | -0.187
19 | CATTAATC | 0.142
20 | TCGCGGCA | -0.0924
21 | CACGACTG | -0.327
22 | CCTACGGC | -0.139
23 | ACCCCTCA | -0.375
24 | GGAAAGTA | 0.0794
25 | CCCGTCAG | -0.315

Row | Sequence | PBM E-score
26 | AACTGTGA | -0.0806
27 | AGATACAT | 0.195
28 | TCACGGGA | -0.0194
29 | TGCGCCCA | -0.209
30 | TGACAAAA | 0.156
31 | ACACGACT | -0.225
32 | ACCTTCGA | -0.0231
33 | GGACAACA | 0.0693
34 | CATCGCAA | -0.181
35 | CAGCTTAA | 0.106
36 | GAACCTGA | -0.11
37 | CTACGCGA | -0.0966
38 | ATAAAACC | 0.171
39 | AACTTCAA | 0.0893
40 | GTGAAATA | -0.0344
41 | ATAAGAGA | 0.161
42 | CATGACAG | -0.0273
43 | ATACATAG | 0.112
44 | AACCAATC | 0.108
45 | TGGACCCA | -0.0341
46 | AAGCGAGC | 0.0223
47 | GGACACCC | -0.221
48 | ACGAAAGT | -0.104
49 | AAATGAGT | 0.247
50 | GCAAGCGC | -0.0385

Row | Sequence | PBM E-score
51 | ACTATTAG | 0.196
52 | CATGTAAA | -0.0258
53 | AAAAGGTA | -0.0438
54 | AATACCAT | 0.135
55 | GGAAGACA | 0.00515
56 | TAGTCATA | 0.0894
57 | ATAAAGAA | 0.19
58 | CACCAAAA | 0.08
59 | AGGAGTGG | -0.124
60 | CACTAGGC | -0.0417
61 | ATCGGTAG | 0.0989
62 | ACCAGGGC | -0.315
63 | TAAGGGCA | -0.0268
64 | CAATCATA | 0.235
65 | TCTGGTCA | -0.0502
66 | ATTCAAGC | 0.0319
67 | ACTACGGA | 0.199
68 | AACACTGC | 0.0144
69 | TACCCGGA | 0.247
70 | CCGAGTCA | 0.117
71 | GATAAAAC | 0.208
72 | AGTCAGCC | -0.241
73 | CCAATGGC | -0.105
74 | CATGAATC | -0.0326
75 | CCAGCATC | -0.116

Row | Sequence | PBM E-score
76 | AATCGTAA | 0.174
77 | GTGCTGTA | -0.0633
78 | CGCTTGTC | 0.0336
79 | GAGACCGC | -0.234
80 | CTACCCCA | -0.204
81 | ACCGCTCT | -0.0711
82 | AGCAGCGG | -0.275
83 | CTGATCTA | -0.0878
84 | CCCGGTCG | -0.0685
85 | ATGGCTCC | -0.0131
86 | AAACGTTC | -0.125
87 | CAGCAACG | 0.11
88 | GGACGACC | -0.232
89 | AGCTGAGA | -0.137
90 | AGCTAGAA | -0.0234
91 | TAAAGTTA | 0.254
92 | GAGGCTCC | 0.0186
93 | CCGCGACC | -0.177
94 | AAATTGCC | 0.106
95 | AGCCACGC | -0.0742
96 | AAGTTCCA | 0.0223
97 | ATAGTTTG | 0.152
98 | CAAGGGCC | -0.122
99 | CCCGCAGA | -0.178
100 | ATGCGAGG | -0.0857

Row | Sequence | PBM E-score
101 | GCGGTTTA | -0.0658
102 | ATGCGATA | 0.0196
103 | AATCCTAG | 0.124
104 | GCCTTGAA | -0.0567
105 | TCTACACA | 0.079
106 | AAAACCCC | 0.137
107 | CAAATGAA | 0.129
108 | TCCCCCCA | -0.32
109 | GAAACTAA | 0.00617
110 | GCTATGAA | 0.103
111 | GTCCAGTA | -0.0627
112 | ATTGTACG | 0.124
113 | AACACAAT | 0.16
114 | ATACACGC | 0.08
115 | ATCGGGTG | -0.0939
116 | CTGCCCCA | -0.257
117 | AAGGTATC | -0.0221
118 | CTGGCGTA | -0.34
119 | CTATGGTC | -0.201
120 | AATCCGCA | 0.00046
121 | TCCGGTCA | 0.159
122 | AATGTGCT | 0.0947
123 | AGGGCCTA | -0.0494
124 | CTGGCATC | -0.305
125 | ACGCTTTC | -0.202

Row | Sequence | PBM E-score
126 | CACCTTGC | 0.00165
127 | AAGGGAGA | -0.2
128 | CAAACAAA | 0.161
129 | TGGCTACA | 0.05
130 | CTCATCAC | -0.135
131 | GATCATGA | 0.0977
132 | GCTGCATA | -0.132
133 | AATGGCCA | 0.0267
134 | ACCCCGAT | 0.342
135 | AGCTTTCA | -0.064
136 | AAGTGCTA | -0.0562
137 | GGTTGGAC | -0.158
138 | CGACGGTC | -0.203
139 | CAAACAGC | -0.0993
140 | AGCGTCGA | -0.059
141 | TCCACTAA | 0.0668
142 | CTGGGTAA | -0.0456
143 | CGCCCGAG | -0.0717
144 | ATAACATA | 0.273
145 | ACTGCGTA | -0.133
146 | ACTCCTAA | 0.121
147 | CGCGCAAA | 0.14
148 | AAGGGCCA | -0.132
149 | GGTGCGAA | -0.0547
150 | TCGACACA | -0.129

Row | Sequence | PBM E-score
151 | ATAGAGTA | 0.117
152 | AAGATAGT | 0.15
153 | GGTTCAAC | -0.104
154 | GAACACGA | 0.0455
155 | ACAAGCCG | -0.0378
156 | ATCTTATA | 0.248
157 | CCCAGATA | -0.106
158 | ATTGACCG | 0.0305
159 | CAACGCGG | -0.0646
160 | ACAGCCGC | -0.166
161 | ACCATTCA | 0.0202
162 | ACTTTGTC | 0.0345
163 | CCAGCTCA | -0.182
164 | GGGGCGTA | -0.167
165 | CACTACCG | -0.127
166 | CCGGCTGA | 0.0215
167 | TCGTACAA | 0.156
168 | AAGAAAAG | 0.116
169 | CCAAGCCA | -0.151
170 | GAAGGCCA | -0.194
171 | AATAACAA | 0.121
172 | CACTACTG | -0.204
